Reference: a collection of fitness landscapes (doi:10.1038/s41467-024-54723-y)
Whole data set: some 18,000 sequences, median “TetR repression strength (sort-seq, GFP reporter)” near 0.23, cut for the highest 2% near 0.68. The list shows a part of the results.

Each sequence was assayed against TetR (class B, Tn10) (UniProt P04483) (assay: TetR repression strength (sort-seq, GFP reporter) (relative to tetO2 = 1); higher = stronger repression). Conditions: E. coli.
Summary of the method: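 Escherichia coli SIG10-MAX cells carried a low-copy plasmid library in which eight operator positions were randomized between a constitutive promoter and sfGFP, and TetR was expressed constitutively. After 5 h of growth at 37 °C in LB with 50 µg/mL chloramphenicol, 10^6 cells were FACS-sorted into 13 fluorescence bins, and each bin was Illumina-sequenced. Repression strength was the top bin index plus one minus the read-weighted mean bin, divided by the value for the unaltered operator. Across three independent transformations, only library members with ≥30 reads in every replicate and a CV ≤0.5 were averaged.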

Sequence of UniProt P04483 (P04483 whole entry): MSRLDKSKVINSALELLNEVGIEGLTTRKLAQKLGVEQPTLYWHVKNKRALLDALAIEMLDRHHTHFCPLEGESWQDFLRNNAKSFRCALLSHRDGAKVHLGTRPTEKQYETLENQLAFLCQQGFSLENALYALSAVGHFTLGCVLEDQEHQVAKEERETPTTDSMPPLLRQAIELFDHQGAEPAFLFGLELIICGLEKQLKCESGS

| Sequence | TetR repression strength |
| --- | --- |
| TCCCGTCTAGTATCGGAGA | 0.308 |
| TCCCAGAGAGTAGACGAGA | 0.217 |
| TCCCCATCAGTGGTGGAGA | 0.127 |
| TCCCTTAGAGTGCAAGAGA | 0.415 |
| TCCCTATCAGTGCCAGAGA | 0.743 |
| TCCCCTTTAGTGGTAGAGA | 0.494 |
| TCCCCAGCAGTTATGGAGA | 0.249 |
| TCCCGCCTAGTGATGGAGA | 0.192 |
| TCCCCTCGAGTTGGGGAGA | 0.121 |
| TCCCTACCAGTCGTCGAGA | 0.368 |
| TCCCTACAAGTGGGGGAGA | 0.166 |
| TCCCCCACAGTCCTAGAGA | 0.412 |
| TCCCGATGAGTGCAAGAGA | 0.504 |
| TCCCGTGCAGTCCGTGAGA | 0.202 |
| TCCCCTGCAGTGGATGAGA | 0.258 |
| TCCCGTGGAGTAGTCGAGA | 0.47 |
| TCCCGGAAAGTGATAGAGA | 0.329 |
| TCCCGTGAAGTGGGTGAGA | 0.243 |
| TCCCGGACAGTCACAGAGA | 0.0968 |
| TCCCGAGTAGTTTTAGAGA | 0.213 |
| TCCCATACAGTGGGGGAGA | 0.236 |
| TCCCCACAAGTGGGAGAGA | 0.182 |
| TCCCATCCAGTCGGGGAGA | 0 |
| TCCCTATAAGTTCATGAGA | 0.35 |
| TCCCGCTGAGTCAGTGAGA | 0.204 |
| TCCCCATAAGTAAGCGAGA | 0.53 |

| Sequence | TetR repression strength |
| --- | --- |
| TCCCCTTGAGTGATCGAGA | 0.192 |
| TCCCTCGTAGTGATGGAGA | 0.143 |
| TCCCTGATAGTGAACGAGA | 0.211 |
| TCCCGTTGAGTGGCGGAGA | 0.237 |
| TCCCCCCGAGTCGTGGAGA | 0.28 |
| TCCCACTGAGTGGAAGAGA | 0.282 |
| TCCCGAACAGTATAAGAGA | 0.291 |
| TCCCCGTCAGTGGCTGAGA | 0.395 |
| TCCCTGGAAGTAGGAGAGA | 0.242 |
| TCCCGAGGAGTAGCTGAGA | 0.139 |
| TCCCGGAGAGTTAATGAGA | 0.225 |
| TCCCGGGTAGTCTATGAGA | 0 |
| TCCCAGGTAGTGGGAGAGA | 0.203 |
| TCCCCTATAGTCGGAGAGA | 0.175 |
| TCCCCCCAAGTGCCAGAGA | 0.415 |
| TCCCGCCAAGTCCCTGAGA | 0.389 |
| TCCCTATCAGTTAATGAGA | 0.655 |
| TCCCGTACAGTGGTGGAGA | 0.195 |
| TCCCAGAGAGTACTCGAGA | 0.276 |
| TCCCGGACAGTGTGAGAGA | 1.2 |
| TCCCACAAAGTGGGTGAGA | 0.155 |
| TCCCCTCGAGTACAAGAGA | 0.58 |
| TCCCCTCGAGTGCTTGAGA | 0.289 |
| TCCCACGCAGTCCCTGAGA | 0.23 |
| TCCCATATAGTAATTGAGA | 0.168 |
| TCCCGCGGAGTAACGGAGA | 0.371 |

| Sequence | TetR repression strength |
| --- | --- |
| TCCCGTAAAGTGGGAGAGA | 0.116 |
| TCCCAGATAGTGTGCGAGA | 0.228 |
| TCCCCGGTAGTAAGCGAGA | 0.445 |
| TCCCGGTCAGTGGGCGAGA | 0.335 |
| TCCCGGACAGTTTCTGAGA | 0.312 |
| TCCCAATGAGTCGCGGAGA | 0.246 |
| TCCCCCAAAGTGAGAGAGA | 0.323 |
| TCCCATCGAGTTGCCGAGA | 0.198 |
| TCCCTTTGAGTTGGTGAGA | 0.0109 |
| TCCCGGGGAGTTACCGAGA | 0.0398 |
| TCCCGGGAAGTGGACGAGA | 0.217 |
| TCCCGGAGAGTCGTTGAGA | 0.118 |
| TCCCGCTCAGTTTGCGAGA | 0.219 |
| TCCCAACTAGTTCCAGAGA | 0.457 |
| TCCCCGATAGTGTATGAGA | 0.553 |
| TCCCGCACAGTCATCGAGA | 0.3 |
| TCCCATCAAGTGTTTGAGA | 0.585 |
| TCCCCTGAAGTATGGGAGA | 0.208 |
| TCCCGGAGAGTCCGGGAGA | 0.254 |
| TCCCGGTAAGTAAGAGAGA | 0.0325 |
| TCCCTGGTAGTATGCGAGA | 0.138 |
| TCCCTTACAGTTCATGAGA | 0.298 |
| TCCCAGGGAGTGGATGAGA | 0.212 |
| TCCCCGACAGTAATTGAGA | 0.148 |
| TCCCGGTGAGTTTCTGAGA | 0.486 |
| TCCCTTCCAGTACACGAGA | 0.387 |

| Sequence | TetR repression strength |
| --- | --- |
| TCCCTGAGAGTCTAGGAGA | 0.199 |
| TCCCATTTAGTGGGGGAGA | 0.228 |
| TCCCGATCAGTATCAGAGA | 0.415 |
| TCCCTTGAAGTCAAAGAGA | 0.187 |
| TCCCGTGCAGTAGACGAGA | 0.299 |
| TCCCCACAAGTGGGTGAGA | 0.0622 |
| TCCCGGATAGTGGTAGAGA | 0.204 |
| TCCCTGCAAGTGGTCGAGA | 0.247 |
| TCCCGGGAAGTGTGCGAGA | 0.206 |
| TCCCGAGTAGTCGCGGAGA | 0.194 |
| TCCCCTGGAGTGAGAGAGA | 0.18 |
| TCCCTAGGAGTCCCAGAGA | 0.27 |
| TCCCGATGAGTGGGGGAGA | 0.435 |
| TCCCTTCGAGTGGCTGAGA | 0.376 |
| TCCCATGTAGTTCGGGAGA | 0.241 |
| TCCCTTGGAGTGTGTGAGA | 0.225 |
| TCCCGTAGAGTGGCGGAGA | 0.0664 |
| TCCCCTTTAGTAGTTGAGA | 0.166 |
| TCCCCATGAGTGGTGGAGA | 0.108 |
| TCCCCTGTAGTCGTGGAGA | 0.4 |
| TCCCGTCTAGTCATAGAGA | 0.227 |
| TCCCGTCTAGTCGTGGAGA | 0.446 |
| TCCCATGCAGTGCGAGAGA | 0.263 |
